Laboratory results from the supplement of paper PMC10126150.
Values marked as one replicate rest on one cluster of the flow cell; about a third of the high ones do not repeat.

Test system: ATP
Assay: switch fluorescence ratio, 500 uM ATP over buffer (Cy3 cluster intensity, sum of 5 cycles each) (fold (ratio)); higher = stronger signal-on switching upon ATP binding; sequences stand for … in TCGTCGGCAGCGTCAGATGTGTATAAGAGACAGTTTTTTTTTTTTTTTTTTTTTTTTT…TC
Details: aptamer strand: ATP DNA aptamer (quencher-CACCTGGGGGAGTATTGCGGAGGAAGG + anchor), 100 nM annealed; ATP concentration: 500 uM; one replicate
Summary of the method: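 Exposure to 500 uM ATP lasted 15 min at 22 °C before imaging, and a selection-buffer image was taken beforehand, for Cy3-labelled switching-strand clusters on a modified Illumina MiSeq flow-cell annealed to 100 nM quencher-labelled ATP aptamer. Five buffer/ATP cycles were run with NaOH stripping and re-annealing between them. The fluorescence ratio per cluster is summed target-cycle over summed buffer-cycle Cy3 intensity, averaged per switch-domain sequence. Clusters outside 100-1000 RFU were excluded.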

Row | Sequence | switch fluorescence ratio
1 | GTAACGCGCT | 1
2 | AAAGCCCAAA | 1.01
3 | AAGATCTAGT | 0.978
4 | ATTCAGCACC | 1.04
5 | AGAAATTAGG | 0.991
6 | AACTTCAATA | 1.06
7 | CAAGCTTAAT | 1.03
8 | ATTTGGAGCG | 1.04
9 | TGATACCGGG | 1.01
10 | CATCTGTAGT | 1.08
11 | CCACTGGCGA | 1.48
12 | ACTAGGTCG | 1.04
13 | TTAAGTCTTG | 1
14 | GGGTAACTTG | 0.995
15 | TTGATACTCT | 1.03
16 | TGCGATTTAG | 1.03
17 | GGCGTAGGGT | 1.03
18 | AGGAAGAAGA | 0.998
19 | TCGTTGGGTT | 1.03
20 | AGTCGTCCCG | 0.995
21 | AACTTCCCCT | 1.21
22 | TGATGGCACG | 0.985
23 | AACAGGGGTA | 1.01

Row | Sequence | switch fluorescence ratio
24 | ACTCCATGGG | 0.985
25 | GCAGCTAAGG | 1.08
26 | GTAAGAAGT | 0.959
27 | AGAATTCGGC | 1
28 | TTTTACGTT | 0.976
29 | CAGCAAGGCT | 1.65
30 | CCGTGAGGGG | 1.07
31 | CTTGGGTATG | 1.02
32 | GTATTTGAGG | 0.97
33 | TAGAGGACAT | 1.01
34 | ACTTGTGGA | 0.994
35 | TACGAAGGCG | 0.983
36 | AGACGCGTTC | 0.991
37 | GCAATCACTT | 1.35
38 | TAGATGGCAG | 1.02
39 | AAAGCATTTG | 1.03
40 | ACACGATAGG | 1.07
41 | GTTGGATT | 1.02
42 | AGGCAGACGT | 0.993
43 | AAGCCTGCTG | 1.02
44 | CAGAGGTTCT | 1
45 | GGCATGCTCG | 1.01
46 | ATTGCACATC | 1.11

Row | Sequence | switch fluorescence ratio
47 | ATTCGTAGAC | 1.09
48 | AGGCTTGTCT | 1.05
49 | CTAAGGAAGT | 1.02
50 | TTTGCTTGAC | 1
51 | GGGGGCACCA | 1.03
52 | GCTACGTTG | 1.07
53 | GGTAGCACAT | 1.04
54 | GCTCTTTATT | 0.995
55 | AGGGTAAATG | 1.05
56 | TATTTTTTAC | 1.04
57 | GAATGAGCGA | 1.02
58 | GCGGAACGAT | 1.03
59 | GGATGTGACT | 0.989
60 | TAAGTTGTCT | 1.04
61 | GGCAGACTTT | 1.08
62 | AGAAACTAC | 1.04
63 | TAAGATCCAT | 1.03
64 | TTTCATGTAA | 0.982
65 | GGATCTTATT | 0.954
66 | CGGTTGAAAA | 1.01
67 | CTATCAATTT | 1.08
68 | AGCGTCATGG | 1.04
69 | CCGCCAGGAA | 0.989

Row | Sequence | switch fluorescence ratio
70 | GGGCTAAGCG | 1.04
71 | TGGAGCTGAC | 1.05
72 | GTCCACCTCA | 1.02
73 | GGCATGCAGT | 1
74 | GCTCTACTGC | 1.03
75 | CGCCACCGGA | 1.02
76 | ACTTCTGCGT | 1.01
77 | GTACGCGACG | 1.14
78 | TGCACTAAAG | 1.02
79 | AGGTGGCGCA | 0.984
80 | TAAGTTTTAC | 1.01
81 | GTTACCCCTT | 1.06
82 | AATGACGCTT | 1.06
83 | GCCGAAAAGT | 0.984
84 | TAAGTTCTCC | 1.04
85 | TTCCTCCAGA | 1.22
86 | AATCTATTA | 0.987
87 | ATTTTCCATG | 0.985
88 | TATTAAGCAA | 1.59
89 | GCCGAGAAGA | 1.07
90 | CAAGGAGGGC | 0.989
91 | CCCGGGAGTT | 0.972
92 | TGCAGGCTA | 1

Row | Sequence | switch fluorescence ratio
93 | ACCTGAGGG | 1
94 | ATCCGTTGGT | 1.06
95 | ACGCTGTAGT | 1.02
96 | CGTAGCCAGT | 1.11
97 | TCCGTGAATT | 1.03
98 | GGTGATTAGC | 0.981
99 | CCAAAATAGA | 0.965
100 | CATGTTCAG | 1.04
101 | ACCTCGGTAA | 1.06
102 | ACACGCCTAG | 0.995
103 | TTTCCAGGGG | 1.47
104 | TTGAGCCAAT | 2.19
105 | TCTCGTCGAA | 0.979
106 | TCCATCATCC | 1.09
107 | CCGGTCGGTG | 1.04
108 | ACTAGCAACA | 1.14
109 | AGATCTGAGG | 1.03
110 | GATTCAGATG | 0.924
111 | CCGGGGAAAG | 1.03
112 | TTGCATCTGG | 0.974
113 | CCTCGGATTA | 1.71
114 | GCAACAATGA | 0.995
115 | GCAGCTGCAC | 1.04

Row | Sequence | switch fluorescence ratio
116 | TCCCCAGTCG | 1.89
117 | TTACATATTC | 1.04
118 | GATAAATAAC | 1.01
119 | GTTGCGAGAC | 1.42
120 | ACACAGGAGC | 1.08
121 | GTGGCTCTGA | 0.911
122 | GCCGAGACGG | 1.01
123 | AATCGAATTA | 0.989
124 | AATGAAAGGA | 0.989
125 | CCGGTGCA | 0.97
126 | GACAGAAAGG | 0.995
127 | ACCAAGTGTG | 1.11
128 | GCGGATGAAG | 1.1
129 | CTTTCAGACA | 1
130 | TTCGATTAAC | 1.02
131 | TCCTCTGGCA | 3.8
132 | CACTTATTCC | 1.1
133 | TAGGTTCGTT | 0.997
134 | TGTATAATAT | 1.02
135 | GGAGACGCGA | 1.12
136 | ATTCTGTGAG | 0.997
137 | GCAAAAGTCG | 0.986
138 | TGTCCTTGCA | 1.06

Row | Sequence | switch fluorescence ratio
139 | AACGCGTAAC | 1.44
140 | ATCAAATGCA | 1
141 | TTAGTCAGGT | 1
142 | CTTTTCGAC | 1
143 | CGTTATGTTA | 0.96
144 | CGGTCTATGG | 1.02
145 | GACGAGTATA | 1.07
146 | AGGCCGTGCT | 1
147 | CTCCACTGA | 1.18
148 | GTTGCCGTAA | 0.975
149 | TCTGCATGCA | 1.01
150 | TACAGCCTTT | 1.17
151 | TCAAATTCTC | 1.01
152 | CCGACTCTAA | 5.1
153 | GGACGCTTGG | 1.05
154 | ATGGGTTCTT | 0.982
155 | TATATAGTGT | 0.953
156 | GACAACAGGT | 1.36
157 | CTATAACGGC | 0.959
